We go through seven molecules from US8592383B2, “Cycloalkyl-fused tetrahydroquinolines as CRTH2 receptor modulators” (Merck Sharp & Dohme Corp., priority 2011, dated 2013).

For orientation: pKi means the negative decadic logarithm of the Ki, by convention in mol/L. Broadly, the Ki is a measure of affinity in units of concentration, obtained from inhibition or displacement.

Each structure is given as a SMILES string. pKi: −log10 of the molar value.

The target in the first experiment is T1, hCRTH2 (Homo sapiens, UniProt Q9Y5Y4).
T1 sequence (Q9Y5Y4 1-395): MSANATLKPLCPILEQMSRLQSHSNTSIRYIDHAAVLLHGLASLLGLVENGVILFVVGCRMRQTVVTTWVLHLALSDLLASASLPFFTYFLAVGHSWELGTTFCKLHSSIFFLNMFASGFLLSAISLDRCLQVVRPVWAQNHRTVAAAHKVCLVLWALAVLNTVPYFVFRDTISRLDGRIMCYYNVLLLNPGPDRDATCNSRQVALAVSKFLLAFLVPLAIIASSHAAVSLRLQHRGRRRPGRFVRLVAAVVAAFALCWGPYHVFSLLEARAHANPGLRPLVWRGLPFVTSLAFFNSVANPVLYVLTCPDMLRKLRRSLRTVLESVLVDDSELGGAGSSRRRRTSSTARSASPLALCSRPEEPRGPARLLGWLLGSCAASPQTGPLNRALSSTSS
Assay: not given
The conditions noted are these: Table A; Radioligand Binding Assay A, [3H]PGD2, HEK-hCRTH2 membranes.
`O=C(O)CCC(=O)N(C1CC1)C1c2ccc(Cl)cc2N(C(=O)C2CC2c2ccccc2)C2CCCC21` (single isomer, unassigned) [17CY, 4-[[cis,cis-6-chloro-2,3,3a,4,9,9a-hexahydro-4-[(trans-2-phenylcyclopropyl)carbonyl]-1H-cyclopenta[b]quinolin-9-yl]cyclopropylamino]-4-oxobutanoic acid] gave a pKi of 8.30 to 9.00.

In the next experiment the target is T1, hCRTH2. Briefly: biochemical. The conditions noted are these: Ki (nM), Table A; Radioligand Binding Assay A, [3H]PGD2, HEK-hCRTH2 membranes.
With `O=C(O)[C@H]1CCN1C(=O)N(C1CC1)[C@H]1c2cc(F)ccc2N(C(=O)OCc2ccccc2)[C@H]2CCC[C@H]21` [compound 133, 4-(phenylmethyl) (3aS,9R,9aR)-[[[2(R)-carboxy-1-azetidinyl]carbonyl]cyclopropylamino]-7-fluoro-1,2,3,3a,9,9a-hexahydro-4H-cyclopenta[b]quinoline-4-carboxylale], the Ki is 5.1 to 20 nM.

For `C[C@@H](OC(=O)N1c2cc(F)ccc2C(N(C(=O)CCC(=O)O)C2CC2)C2CCCC21)c1ccc(F)cc1` (stereo partly drawn) [compound 147, 4-[1(R)-(4-fluorophenyl)ethyl] cis, cis-[(3-carboxy-1-oxopropyl)cyclopropylamino]-6-fluoro-1,2,3,3a,9,9a-hexahydro-4H-cyclopenta[b]quinoline-4-carboxylate], the Ki was in the range of 5.1 to 20 nM. `O=C(O)CCC(=O)N(C1CC1)[C@H]1c2cc(F)ccc2N(C(=O)c2ccc(OC(F)(F)F)cc2O)[C@H]2CCC[C@H]21` [compound 171] returned a Ki of 5.1 to 20 nM. Same read-out and setting: for `COc1cc(OC(F)(F)F)ccc1C(=O)N1c2ccc(F)cc2[C@H](N(C(=O)CCC(=O)O)C2CC2)[C@@H]2CCC[C@@H]21` [compound 172] the value was 5.1 to 20 nM; for `O=C(O)CCC(=O)N(C1CC1)[C@H]1c2cc(F)ccc2N(C(=O)c2ccc(OC(F)(F)F)c(O)c2)[C@H]2CCC[C@H]21` [compound 173], 5.1 to 20 nM; for `O=C(CCC(=O)N(C1CC1)[C@H]1c2cc(F)ccc2N(C(=O)c2ccc(OC(F)(F)F)cc2)[C@H]2CCC[C@H]21)OC1OC(C(=O)O)C(O)C(O)C1O` (stereo partly shown) [compound 174], 201 to 7500 nM.
